# Measurements published in PubChem BioAssay AID1347041 (National Center for Advancing Translational Sciences (NCATS), 2019).
# Out of some 480,000 compounds screened, about 740 (0.15%) were called active. The shares of active, inactive and inconclusive entries below differ from those in the screen. Rule as the data show it: active = activity change below about -30%; inconclusive = mostly about -25% to -30%; inactive = weaker than that. Some structures have more than one record in an assay (separate samples or runs), and their calls can disagree.
# Molecular target: L-lactate dehydrogenase A chain (Homo sapiens) (UniProt P00338)
# Assay: qHTS assay for inhibitors of human lactate dehydrogenase;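 also: values are at about 110 or 230 µM; plate controls were DMSO wells for no effect and wells without enzyme for full effect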
# Settings: purified LDHA, NADH/diaphorase-resazurin fluorescence; stronger effect = lower value
# Procedure, shortened: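 Human LDH5 at 2 nM final in Tris HCl pH 7.4 with 0.06 mM NADH and 0.2 mM pyruvate, reacted 5 minutes at room temperature. Remaining NADH coupled via diaphorase/resazurin; resorufin fluorescence read at 0 and 20 minutes, normalized to enzyme-free and DMSO wells.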
row,Structure (SMILES),activity change
1,CCN(CC)CC(=O)Nc1cc(N(C)C)nc2ccccc12,active: -33.3%
2,Cc1c(C)n(CC(O)CN2CCCCC2)c2ccccc12 (stereo unspecified),inconclusive: -29.5%
3,CN1CCN(CC(=O)Nc2ccc(OC(F)(F)F)cc2)CC1,inconclusive: -26.7%
4,C=CCNCCCCOc1cccc(Br)c1,inconclusive: -29.2%
5,CC(C)C(=O)NNc1ccc(C(F)(F)F)cn1,inconclusive: -26%
6,CCOC(=O)C1=C(N)Oc2c(oc(CO)cc2=O)C1c1cc(Cl)ccc1Cl (stereo unspecified),inconclusive: -25.9%
7,Cc1cccc(NC(=O)CCCN2C(=O)c3ccccc3C2=O)n1,inactive: -4.3%
8,N#Cc1c(-c2ccccc2)nc(SCC(=O)N2c3ccccc3Sc3ccccc32)[nH]c1=O,inconclusive: -25%
9,Cc1cc(C)n2nc(SCC(=O)c3cc(C)n(C4CCS(=O)(=O)C4)c3C)nc2n1 (stereo unspecified),inconclusive: -26.3%
10,COc1ccccc1CNCC(=O)Nc1ccccc1-n1cccc1,inconclusive: -25.5%
11,N#Cc1ccc(/C=C/C(=O)c2ccc3c(c2)CCC3)cc1,inconclusive: -26.4%
12,CCOCCCNC(=S)N1CCN(Cc2ccc3c(c2)OCO3)CC1,inconclusive: -27.9%
13,O=C(CS(=O)(=O)c1ccc(N2CCCC2=O)cc1)N1CCOCC1,inactive: 8.22%
14,Cn1nc(CC(=O)Nc2cccc(Cl)c2)c2ccccc2c1=O,inconclusive: -28.8%
15,Cc1ccc2cc(CCl)c(Cl)nc2c1,inactive: -0.615%
16,CC1(C)CC(=O)C2=C(C1)OC(N)=C(C#N)C2c1ccc(-c2ccccc2)cc1 (stereo unspecified),inactive: 9.1%
17,Cc1nn(-c2ccccc2)c(C)c1CC(=O)N1CCN(S(=O)(=O)c2ccccc2F)CC1,inconclusive: -29.6%
18,O=C(c1cccnc1)N1CCN(Cc2ccc3ccccc3c2)CC1,inconclusive: -25%
19,CC1CCCN(C2(O)C(=O)Nc3ccc(Cl)cc32)C1 (stereo unspecified),inactive: -1.73%
20,Cc1noc(C)c1S(=O)(=O)Nc1ccc(C(=O)N2CCN(c3ccc(Cl)cc3)CC2)cc1,inactive: -1.1%
21,O=C(COc1ccc2ccccc2c1)Nc1cnc2ccccc2c1,active: -32.6%
22,O=C(NCC1CC2c3ccccc3C1c1ccccc12)c1cnccn1 (stereo unspecified),inactive: 14.2%
23,O=C(Cc1cccs1)NCc1ccsc1,inconclusive: -26.1%

row,Structure (SMILES),activity change
1,Cn1c(=O)c2c(nc(NCc3cccnc3)n2Cc2ccc(Cl)cc2)n(C)c1=O,inactive: -0.963%
2,Cc1ccc(S(=O)(=O)CCC(=O)N2CCN(c3nc4c(C)c(C)ccc4s3)CC2)cc1,inconclusive: -27.6%
3,NS(=O)(=O)c1ccc(O)c(NC(=O)c2ccc([N+](=O)[O-])cc2)c1,active: -57.2%
4,O=P(c1ccccc1)(c1ccccc1)c1cc(S(=O)(=O)O)ccc1O,inactive: -1.75%
5,Cc1csc2nc(CSc3ccccc3NC(=O)COc3ccccc3Cl)cc(=O)n12,inconclusive: -26.1%
6,CC(C)Cc1nn2c(=O)cc(COC(=O)c3ccc(NC(=O)C4CCCCC4)cc3)nc2s1,inconclusive: -27.8%
7,CCCn1cc2c(C(F)(F)F)cc(=O)n(CCC(=O)O)c2n1,inconclusive: -26.5%
8,COc1cccc(/C=C/C(=O)N2CCN(S(=O)(=O)c3ccccc3)CC2)c1,inactive: -2.97%
9,Cc1ccc2nc(C)c(C(=O)NCCCOCC(C)C)cc2c1,inconclusive: -28.5%
10,COc1ccc(Nc2oc(/C=C/c3ccc(F)cc3)nc2C#N)cc1,inconclusive: -25.1%
11,COC(=O)c1ccccc1-c1ccc(/C=C(\C#N)c2nc3ccccc3[nH]2)o1,inconclusive: -28.8%
12,Brc1ccccc1OCCCCCN1CCOCC1,inconclusive: -25.4%
13,CC1CC(C)CN(C(=O)c2cc3cc(Br)cc(Br)c3o2)C1 (stereo unspecified),inactive: -6.76%
14,CC(C)Cc1c(C(C)C)sc(N)c1C#N,inconclusive: -29.5%
15,COc1cccc(C(=O)N2CCN(Cc3ccccc3Br)CC2)c1,inconclusive: -28.3%
16,Cc1ccc2c(COC(=O)CNC(=O)c3ccccc3)cc(=O)oc2c1C,inactive: 3.09%
17,CC1=CC(C)(C)Nc2ccc(OC(=O)CCN3C(=O)c4ccccc4C3=O)cc21,inactive: 3.98%
18,CCOc1ccc(OCC)c(NC(=O)CN2CCN(c3cccc(C)c3)C(C)C2)c1 (stereo unspecified),inconclusive: -25.5%
19,CC(Sc1ccccc1)C(=O)Nc1ccc(N2CCN(C)CC2)nc1 (stereo unspecified),inconclusive: -27%
20,COc1cc(C)cc2oc(=O)c(CC(=O)N3CCN(C(=O)C4COc5ccccc5O4)CC3)c(C)c12 (stereo unspecified),inconclusive: -29.4%
21,O=C(Oc1ccccc1)c1cccc(COC(=O)c2cnccn2)c1,inactive: 6.08%
22,COCC(=O)n1nc(NCc2ccccc2Cl)nc1NCc1ccccc1Cl,active: -49%
23,CCOc1ccccc1C1C(C#N)=C(N)OC2=C1S(=O)(=O)N(CC)c1ccccc12 (stereo unspecified),inconclusive: -27.2%

row,Structure (SMILES),activity change
1,CC1CCCCC1NC(=O)C1CC1C (stereo unspecified),inactive: 5.34%
2,c1ccc(C2=NCCCN2)cc1,inactive: -11.4%
3,COc1ccc(-c2cc(NCc3ccccn3)n3ncnc3n2)cc1,inactive: -3.78%
4,c1ccc(-c2ccccc2OCCN2CCOCC2)cc1,inconclusive: -32.7%
5,COCCCC1CCN(Cc2nc(Cc3ccccc3Cl)no2)CC1,inactive: 0.569%
6,NC(=O)C(CC(=O)O)NC(=O)[C@@H]1CCCNc2c(I)cc([N+](=O)[O-])cc2C(=O)N[C@@H](CO)C(=O)N[C@@H](Cc2ccc(O)cc2)C(=O)N1 (stereo partly specified),inconclusive: -25.7%
7,Cc1cc(NC(=O)CN2CCN(C(=O)c3ccc(Br)cc3)CC2)no1,inactive: 20.7%
8,O=c1c2ccccc2cnn1Cc1n[nH]c(=S)n1-c1cc(Cl)cc(Cl)c1,inactive: -0.691%
9,O=[N+]([O-])c1ccc(C(O)C[n+]2ccccc2)cc1 (stereo unspecified),active: -30.1%
10,CCc1ccc2oc(C(=O)NCC(c3ccco3)N3CCOCC3)cc(=O)c2c1 (stereo unspecified),inconclusive: -29.6%
11,Cc1ccc(CN(C)C(=O)CN2CCCC2c2ccc3c(c2)OCCO3)cc1 (stereo unspecified),inconclusive: -25.8%
12,CCOc1ccccc1CN1CCC(N2CCOCC2)CC1,active: -31.3%
13,Cc1[nH]c2ccccc2c1CC(=O)NCc1cn2ccccc2n1,inconclusive: -29.9%
14,O=[N+]([O-])c1cc(S(=O)(=O)Nc2cccc(Cl)c2)ccc1N=Nc1c(O)[nH]c2ccccc12,active: -42.1%
15,CC(C)OC(=O)/C(C#N)=C/c1c[nH]c2ccccc12,active: -32.5%
16,CCCn1nnc(NCc2ccc(Cl)cc2Cl)n1,inconclusive: -25.2%
17,CNC(=O)CSc1nc2c(c(C(F)(F)F)c1C#N)CC(C(C)(C)C)CC2 (stereo unspecified),inconclusive: -25.5%
18,CN(CCO)c1nc(-c2cccs2)nc2ccccc12,inactive: 2.72%
19,CCOc1ccc(OCCCCn2ccnc2)cc1,inconclusive: -28.5%
20,CCn1nc(C(=O)Nc2nc(-c3ccc(NC(C)=O)cc3)cs2)c2ccccc2c1=O,active: -30.9%
21,Cc1ccc(F)cc1NC(=O)c1nc2ccccc2nc1N1CCOCC1,inactive: -2.19%
22,CCOc1ccc2oc(=O)cc(-c3cc4ccccc4o3)c2c1,inconclusive: -28.9%
23,O=C(CSc1nc2c([nH]c3ccccc32)c(=O)n1-c1ccc(F)cc1)Nc1ccc2c(c1)OCO2,inactive: 1.07%

row,Structure (SMILES),activity change
1,O=C(NC1CCS(=O)(=O)C1)C1CCN(C2=NS(=O)(=O)c3ccccc32)CC1 (stereo unspecified),inconclusive: -27.9%
2,O=C(/C=C/c1ccc(O)c(O)c1)OC(Cc1ccc(O)c(O)c1)C(=O)O (stereo unspecified),inactive: 13.9%
3,CC1CCC(N2CCN(S(C)(=O)=O)CC2)CC1 (stereo unspecified),active: -33.7%
4,N#CCCn1c(SCC(=O)Nc2ccc3c(c2)CCC3)nc2ccccc21,inconclusive: -28.8%
5,CCOc1ccc(OCCCC(=O)N2CCN(S(=O)(=O)c3ccc(Cl)cc3)CC2)cc1,inconclusive: -28.2%
6,CCCNc1c(NS(=O)(=O)c2ccc(F)cc2)c(=O)oc2ccccc12,inactive: -3.87%
7,CC(C)CC(NC(=O)C1CCCCC1)C(=O)NCCc1ccccc1 (stereo unspecified),inconclusive: -25.9%
8,CC1(c2ccccc2)NC(=O)N(Cc2ncc(-c3ccccc3)o2)C1=O (stereo unspecified),inconclusive: -29%
9,COc1cc(NC(=O)C2=CCN(Cc3ccccc3F)CC2)cc(OC)c1OC,inconclusive: -27.9%
10,O=C(CNCC1CCCO1)N1CCCc2ccccc21 (stereo unspecified),inconclusive: -29%
11,Cc1ccc2c(c1)C(C)CC(C)(C)N2C(=O)CN1CCN(C)CC1 (stereo unspecified),active: -40%
12,O=C(O)CCN(CCC(=O)O)c1ccc(/C=C/c2ccnc3ccccc23)cc1,inconclusive: -25.6%
13,COc1ccc(NC(=O)c2cc(C)nc3ccccc23)cc1S(=O)(=O)Nc1ccccc1Cl,inconclusive: -26.6%
14,N#Cc1cc(NCC(=O)N2CCNC2=O)ccc1Cl,active: -31.1%
15,COc1ccc(CN2CCN(Cc3ccco3)CC2)cc1OC,active: -34.3%
16,ClCC(Cl)C[n+]1cccc2ccccc21 (stereo unspecified),active: -47.2%
17,CCCNC(=O)N1CCN(Cc2nc(-c3ccc(OC)cc3)oc2C)CC1,inconclusive: -25.2%
18,COc1cc(OC)cc(C(=O)N2CCN(C3CCN(Cc4ccccc4)CC3)CC2)c1,active: -31.4%
19,COc1ccc(CCNC(=O)CNCC(c2ccccc2)N(C)C)cc1OC (stereo unspecified),inconclusive: -27.5%
20,O=C(CSc1nc(Cl)nc2nc[nH]c12)Nc1cccc(Cl)c1,active: -35%
21,CC(C)(C)c1ccc(-c2nc(-c3ccc(Br)o3)no2)cc1,active: -30.6%
22,CCc1ccc(NS(=O)(=O)c2ccc(C)c(C(=O)N3CCOCC3)c2)cc1,active: -44.1%
